The list shows a part of the results. Sequences were assembled here from the parent chain. Values near 0.05 are background.
B1: TEV protease; numbered along this chain (parent)
chain: MGESLFKGPRDYNPISSSICHLTNESDGHTTSLYGIGFGPFIITNKHLFRRNNGTLVVQSLHGVFKVKDTTTLQQHLVDGRDMIIIRMPKDFPPFPQKLKFREPQREERICLVTTNFQTKSMSSMVSDTSCTFPSGDGIFWKHWIQTKDGQCGSPLVSTRDGFIVGIHSASNFTNTNNYFTSVPKNFMELLTNQEAQQWVSGWRLNADSVLWGGHKVFMVKPEEPFQPVKEATQL

Variants of: B1
Test: raw area under fraction-flipped curve 0-4 h after induction (AUC4h, not background-subtracted), DNA-recorder readout of cleavage of the substrate (dimensionless); higher = more cleavage of the substrate by the protease variant
Conditions: temperature: 34 °C; time window: 0-4 h after rhamnose induction
Method: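 In vivo DNA recorder in E. coli TOP10(DE3) ΔrhaA at 34 °C. Each TEVp single-site mutant (parent TEVp 0) is paired with a single-site variant of the 7-mer TEVs (canonical ENLYFQ|S). The substrate sits between flexible linkers in a Bxb1-sfGFP-TEVs-SsrA fusion, so cleavage stabilises Bxb1 and speeds flipping of a recombination array, read by NGS. The value is the raw area under the fraction-flipped curve over 0-4 h after rhamnose induction (AUC4h), with ≥20 reads per time point. It is not background-subtracted; inactive controls average about 0.047.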
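Further: Bxb1 expression induced with 0.2% (w/v) L-rhamnose at OD600 near 0.5, cultures sampled hourly, flipped fraction per protease–substrate barcode pair counted by paired-end Illumina sequencing.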

| Variant | area with substrate ENLYFCS | area with substrate ENLYFDS | area with substrate ENLYFES | area with substrate ENLYFFS | area with substrate ENLYFGS | area with substrate ENLYFHS | area with substrate ENLYFIS | area with substrate ENLYFLS | area with substrate ENLYFMS | area with substrate ENLYFNS | area with substrate ENLYFPS | area with substrate ENLYFRS | area with substrate ENLYFSS | area with substrate ENLYFTS | area with substrate ENLYFVS | area with substrate ENLYFWS | area with substrate ENLYFYS | area with substrate ENLYFKS |
| --- | --- | --- | --- | --- | --- | --- | --- | --- | --- | --- | --- | --- | --- | --- | --- | --- | --- | --- |
| G54Q | 0.0447 | 0.0537 | 0.0556 | 0.067 | 0.0545 | 0.0549 | 0.0543 | 0.0652 | 0.0572 | 0.0564 | 0.0639 | 0.0556 | 0.0667 | 0.0594 | 0.0586 | 0.058 | 0.0621 | – |
| S60K | 0.0576 | 0.0576 | 0.0557 | – | – | 0.0634 | 0.0507 | 0.0829 | 0.05 | 0.0535 | 0.0749 | – | 0.0604 | 0.0597 | 0.0551 | 0.0547 | – | – |
| L61H | 0.0251 | 0.0468 | 0.0716 | 0.0616 | 0.0662 | – | 0.06 | 0.0611 | 0.0618 | 0.0651 | 0.0642 | – | 0.0671 | 0.0598 | 0.0446 | 0.0533 | 0.0594 | 0.0498 |
| T70I | 0.0567 | – | – | 0.0762 | 0.0586 | 0.0613 | 0.0515 | – | 0.0686 | 0.0541 | 0.0444 | 0.0402 | 0.0673 | 0.0557 | 0.0674 | 0.0592 | 0.0582 | 0.0747 |
| Q75F | 0.0583 | – | 0.0755 | 0.0641 | – | – | 0.0521 | – | 0.0621 | 0.046 | 0.0514 | 0.0757 | 0.0581 | 0.0636 | – | – | – | 0.0615 |
| M83D | 0.0488 | 0.0389 | 0.0437 | 0.061 | – | – | 0.0561 | 0.0505 | 0.0485 | – | 0.0522 | 0.0508 | 0.049 | 0.0442 | 0.0506 | 0.0422 | 0.0573 | 0.0596 |
| M88A | 0.0634 | – | 0.0582 | – | 0.0607 | – | 0.0541 | 0.0759 | – | – | 0.0536 | – | – | – | 0.0494 | 0.0294 | 0.0892 | – |
| F92C | 0.0634 | 0.0472 | 0.0605 | 0.0602 | 0.0562 | 0.0329 | 0.0629 | 0.0732 | 0.0741 | 0.0474 | 0.0592 | 0.0486 | 0.0526 | 0.0596 | 0.0658 | 0.0652 | 0.0552 | 0.0607 |
| P104G | 0.0503 | – | 0.0464 | 0.0599 | – | 0.0486 | 0.0556 | 0.0761 | 0.0475 | 0.063 | 0.0576 | 0.0504 | – | 0.055 | 0.0535 | 0.0513 | 0.0423 | 0.0445 |
| Q105D | 0.0658 | 0.0479 | 0.0688 | 0.0612 | 0.0534 | 0.0554 | 0.0616 | 0.0556 | 0.0756 | 0.0659 | 0.0627 | 0.0571 | 0.0604 | 0.045 | 0.0395 | 0.0596 | 0.0514 | 0.0621 |
| R106A | 0.0605 | 0.0432 | 0.0729 | 0.0625 | 0.0689 | 0.0869 | 0.0657 | 0.0575 | – | – | 0.0351 | 0.0633 | 0.0539 | 0.0788 | 0.0629 | – | – | 0.0655 |
| I110T | 0.0594 | 0.0549 | 0.0606 | 0.0599 | 0.0585 | 0.0584 | 0.0601 | 0.058 | 0.0558 | 0.0623 | 0.067 | 0.0532 | 0.0629 | 0.0541 | – | 0.0453 | – | 0.0634 |

Source: the supplement of paper PMC12217912
